The campaign covered roughly 310,000 compounds. About 2,200 (0.71%) showed an effect of 50% or more. Effects have a minus sign here. The list shows a part of the results.

From paper PMC4336329 (PLoS ONE, 2015) come the findings set out here.

Chain of human ether-à-go-go-related gene (hERG) potassium channel (Q12809 whole entry, looked up): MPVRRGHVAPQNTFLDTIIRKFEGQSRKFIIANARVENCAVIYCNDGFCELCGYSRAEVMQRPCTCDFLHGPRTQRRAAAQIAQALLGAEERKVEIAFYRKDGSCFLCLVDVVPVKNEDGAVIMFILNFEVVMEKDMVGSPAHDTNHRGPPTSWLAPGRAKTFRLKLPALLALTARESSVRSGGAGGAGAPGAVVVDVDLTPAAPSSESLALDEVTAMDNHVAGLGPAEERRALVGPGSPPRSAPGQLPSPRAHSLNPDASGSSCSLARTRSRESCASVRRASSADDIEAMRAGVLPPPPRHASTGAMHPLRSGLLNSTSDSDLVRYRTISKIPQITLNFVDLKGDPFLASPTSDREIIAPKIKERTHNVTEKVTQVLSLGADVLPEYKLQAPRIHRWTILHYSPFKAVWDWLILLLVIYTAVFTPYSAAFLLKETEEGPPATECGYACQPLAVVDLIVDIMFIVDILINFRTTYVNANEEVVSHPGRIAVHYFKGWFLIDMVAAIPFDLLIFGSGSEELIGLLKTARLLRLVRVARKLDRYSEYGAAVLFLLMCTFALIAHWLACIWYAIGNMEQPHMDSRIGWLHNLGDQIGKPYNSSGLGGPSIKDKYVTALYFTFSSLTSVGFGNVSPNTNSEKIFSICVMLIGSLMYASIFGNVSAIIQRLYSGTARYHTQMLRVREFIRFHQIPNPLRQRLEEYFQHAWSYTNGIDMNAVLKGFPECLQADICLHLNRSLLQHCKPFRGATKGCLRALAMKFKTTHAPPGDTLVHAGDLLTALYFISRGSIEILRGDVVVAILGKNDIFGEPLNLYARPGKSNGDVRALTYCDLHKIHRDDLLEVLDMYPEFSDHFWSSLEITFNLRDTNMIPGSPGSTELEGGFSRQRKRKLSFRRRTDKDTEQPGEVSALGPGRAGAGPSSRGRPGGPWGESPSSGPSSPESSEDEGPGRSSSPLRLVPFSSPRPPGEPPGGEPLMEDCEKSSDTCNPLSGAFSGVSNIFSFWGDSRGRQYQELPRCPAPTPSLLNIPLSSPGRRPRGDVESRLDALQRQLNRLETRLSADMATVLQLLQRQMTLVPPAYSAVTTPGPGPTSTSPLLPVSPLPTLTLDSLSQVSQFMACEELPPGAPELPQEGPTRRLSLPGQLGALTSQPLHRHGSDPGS

This assay has as its target human ether-à-go-go-related gene (hERG) potassium channel (human, UniProt Q12809). Nature of the assay: primary screen, population patch clamp on CHO cells stably expressing hERG.
Regarding `CCc1nc(NCc2cccnc2)c2oc3ccccc3c2n1.Cl`, the “hERG current change (%, negative = inhibition) at 1uM” value is 8.44%.
Turning to `CSc1nc(N)c(NC(=O)c2ccc(Br)o2)c(=O)[nH]1`, the “hERG current change (%, negative = inhibition) at 1uM” value stood at 23.2%.
For the compound `COc1cc(/C=N/NC(=O)c2cccc(C)c2)ccc1OCC(=O)Nc1ccccc1`, the “hERG current change (%, negative = inhibition) at 1uM” value came out at 10.9%.
Take `c1ccc(CCNc2ncnc3nc[nH]c23)cc1`: the “hERG current change (%, negative = inhibition) at 1uM” value stood at 11%.
To `Cc1ccccc1CSCC(Nc1ccc(C(=O)O)cc1[N+](=O)[O-])C(=O)O` (stereo not drawn) belongs 7.82%; to `O=C1c2cnccc2CN1Cc1ccccc1`, 7.4%.
To `CCNc1nc(Oc2ccc(=O)n(-c3ccccc3)n2)nc(N(C)C)n1` belongs 10.7%; to `O=C(N/N=C/c1ccc(OCc2cnc(Cl)s2)cc1)c1ccncc1`, 7.26%.
Take `CC1CC(C)CN(C(=O)CCNC(=O)Cn2ccc3ccccc3c2=O)C1` (stereo not drawn): the “hERG current change (%, negative = inhibition) at 1uM” value is on record as 11%.
The same measure for `Cc1ccc(CN(C(=O)c2ccco2)C(C(=O)NC2CCCC2)c2ccc(N3CCOCC3)cc2)cc1` (stereo not drawn): -3.43%; for `COc1ccc2nc(C)cc(N3CCC(C(N)=O)CC3)c2c1`: -2.62%.
To `Brc1cc2ccccc2[n+](Cc2ccccc2)c1.[Br-]` belongs 2.83%; to `O=C(NCc1ccco1)C(=O)NCC1OCCN1S(=O)(=O)c1ccc(Cl)cc1` (stereo not drawn), 6.25%.
The same measure for `Cc1ccc(S(=O)(=O)N(C)c2ccc(C(=O)Nc3ccc(C)cn3)cc2)cc1`: 15.4%; for `CC1CN(CCOc2cccc(Oc3ccccc3)c2)CC(C)O1.O=C(O)C(=O)O` (stereo not drawn): 24.5%.
On to `CCOC(=O)NC(=O)/C(C#N)=C\Nc1ccc(Cl)cc1Cl`, for which the “hERG current change (%, negative = inhibition) at 1uM” value is 10.5%.
To `S=C(NCc1cccnc1)Nc1ccc2c(c1)OCO2` belongs -0.412%.
As for `CC(C)[C@H](NC(N)=O)C(=O)Nc1ccc(F)c(Cl)c1`, the “hERG current change (%, negative = inhibition) at 1uM” value amounted to 10.9%.
The same measure for `Clc1ccc(OCc2nn3c(-c4ccco4)nnc3s2)c(Cl)c1`: -1.26%; for `O/N=C(/Cc1ccccn1)c1ccccc1`: 8.85%; for `O=C(C1COc2ccccc2O1)N1CCCCC1` (stereo not drawn): 13.2%.
The same measure for `O=C1CSCC(=O)N1c1ccccc1`: 7.93%; for `CC1(C)CC2CC(C)(CN2C(=O)COC(=O)c2ccc(Cl)cc2N)C1` (stereo not drawn): -3.27%; for `CC(OC(=O)COc1cccc2c1OC(C)(C)C2)C(=O)Nc1ccc(S(N)(=O)=O)cc1` (stereo not drawn): 5.17%.
The same measure for `CCOCCCNC(=O)C1CCCCN1S(=O)(=O)c1ccc(F)cc1` (stereo not drawn): 2.91%; for `COC(C(=O)Nc1ccnn1C1CCN(C(=O)c2ccc(C)cc2)CC1)c1ccccc1` (stereo not drawn): 4.64%; for `CCOC(=O)CC(NC(=O)c1ccco1)c1ccc(C)cc1` (stereo not drawn): 11.4%.
As for `CCOC(=O)Nc1oc2ccccc2c(=O)c1C`, the “hERG current change (%, negative = inhibition) at 1uM” value is given as -5.07%.
The same measure for `CC1CCCC(NC(=O)COC(=O)CCSc2ccccc2)C1C` (stereo not drawn): 11.4%; for `O=C(c1ccccc1)N1CCCC(C(=O)N2CCN(c3ccccc3)CC2)C1` (stereo not drawn): 9.45%.
To `COc1cccc2c(=O)n(CC(=O)N3CCN(c4ccccc4)CC3)ccc12` belongs -3.64%.
The same measure for `COC(=O)c1ccccc1NC(=O)COC(=O)c1ccc(C)c(NC(=O)c2ccco2)c1`: -20.3%; for `Cc1[nH]n(-c2ccc([N+](=O)[O-])cc2)c(=O)c1C=NCCN1CCN(C(=O)c2ccc(Br)cc2)CC1`: -77.4%; for `CCOC(=O)N1CCC(=NNC(=O)COc2ccc(C#N)cc2)CC1`: 5.21%.
On to `CCOC(=O)Nc1ccc(S(=O)(=O)Nc2nccc(C)n2)cc1`, for which the “hERG current change (%, negative = inhibition) at 1uM” value is listed as 7.8%.
Take `COc1ccc2c(c1)C=C(C(=O)NCc1ccc(Cl)cc1)CO2`: the “hERG current change (%, negative = inhibition) at 1uM” value is reported as -6.77%.
To `CCc1nn2c(=O)cc(CSCC(=O)Nc3ccccc3Cl)nc2s1` belongs 16.2%; to `Cc1c(O)ccc(C(=O)CN2CCN(Cc3ccccc3)CC2)c1O`, -0.994%.
As for `O=C(NCCS(=O)(=O)N1CCN(c2cccc(Cl)c2)CC1)c1cc(=O)c2ccccc2o1`, the “hERG current change (%, negative = inhibition) at 1uM” value is 4.34%.
To `Cc1ccc(OCCCC(=O)NCc2ccco2)c(C)c1` belongs 11.8%; to `Cc1c(C(=O)O)nnn1-c1ccccc1`, 9.38%; to `O=C(Nc1cccnc1Cl)c1cc(-c2ccc(O)cc2)on1`, 22.1%.
Regarding `Cc1nn(-c2ccccc2)c2sc(C(=O)N3CCOCC3)cc12`, the “hERG current change (%, negative = inhibition) at 1uM” value is on record as 0.778%.
The same measure for `O=C(CSc1nnc(-c2ccc(Cl)cc2)n1-c1ccccc1)N/N=C/c1ccccc1C(=O)O`: -0.291%; for `CCn1c(O)c(/C=N/N=C2CCCC2)c2ccc(C3=NNC(=O)CC3)cc21`: 8.2%.
Take `CC(=O)c1ccc2c(c1)N(C)c1ccccc1S2`: the “hERG current change (%, negative = inhibition) at 1uM” value amounted to 4.48%.
To `Cc1cc(SCC(=O)OC/C(O)=C(\C#N)c2nc3ccccc3[nH]2)c(C)cc1Br` belongs 12.7%; to `O=S(=O)(c1ccc(N2CCCCCC2)nc1)N1CCCC1`, 14%; to `Cc1ccc(F)cc1NC(=O)CCc1c(C)nn(-c2ccc(N3CCCCC3)nn2)c1C`, 11.4%.
To `Cc1cccc(OCC(=O)N2CCN(C(=O)COc3ccc(Cl)cc3)CC2)c1` belongs -56.6%; to `Cl.Nc1ccc2c(c1)OCCOCCOCCOCCOCCO2`, -12.2%; to `CN(C(=O)COC(=O)CNC(=O)c1ccccc1F)C1CCCCC1`, 11.1%.
For `Cc1ccc(C(=O)/C=C/c2ccccc2[N+](=O)[O-])cc1`, the “hERG current change (%, negative = inhibition) at 1uM” value stood at 8.96%.
To `Nc1c([N+](=O)[O-])cc(-c2cnc[nH]2)cc1[N+](=O)[O-]` belongs 8.5%.
To `O=C(CSc1nnnn1C1CCCCC1)N1CCc2ccccc21` belongs -0.564%.
`COc1ccc2cc(CCl)c(Cl)nc2c1`: the “hERG current change (%, negative = inhibition) at 1uM” value is -0.928%.
To `COc1ccc(CNC(=O)CCSCc2cccc(Cl)c2)c(OC)c1` belongs -2.85%; to `O=C(Nc1ccccn1)C(=O)N1CCCCC1`, 10.1%.
To `CCOc1ncccc1C(=O)NCCc1c[nH]c2ccccc12` belongs 9.61%; to `O=C(CN1CCC(n2nnc3cc(C(F)(F)F)ccc32)CC1)Nc1ccc2c(c1)CCC2`, 12.6%.
The same measure for `O=C(c1cnc2sccn2c1=O)N(Cc1ccccc1)c1ccccn1`: 3.66%.
Take `Cc1ccccc1C(=O)N1CCC(C(=O)Nc2ccccn2)CC1`: the “hERG current change (%, negative = inhibition) at 1uM” value turned out to be 7.06%.
The same measure for `CC(C)c1ccc(NC2CCCN(C(=O)CCN3CCCCC3=O)C2)cc1` (stereo not drawn): 15.4%; for `N#Cc1c(N)nc2c3c(sc(=N)c2c1N)NC(=O)CC3c1ccccc1` (stereo not drawn): 14.9%.
The same measure for `CC(=O)N1c2ccccc2C(C)(c2ccccc2)CC1(C)C` (stereo not drawn): -16.7%; for `O=C(CCCn1c(=S)[nH]c2ccccc2c1=O)NC1CCCCC1`: 12.7%.
With `COc1ccc(CC(=O)NNC(=S)Nc2ccccc2)cc1Br`, the “hERG current change (%, negative = inhibition) at 1uM” value is on record as 6.42%.
With `COC(=O)Cc1ccc(NC(=S)NCc2ccc(OC)cc2)cc1`, the “hERG current change (%, negative = inhibition) at 1uM” value was determined as 13.1%.
For `Cn1ccc(C(=O)OCC(=O)c2ccccc2)n1`, the “hERG current change (%, negative = inhibition) at 1uM” value came to 5.98%.
The same measure for `Cc1ccc(C(=O)NCCCc2ccccc2)s1`: 2.48%; for `Cc1ccc([N+](=O)[O-])cc1NC(=O)c1c(-c2ccccc2)noc1C`: 4.13%.
To `C=CCOc1c(Cl)cc(CNc2nccs2)cc1OC` belongs -13.7%; to `CCOC(=O)N1CCC(N2C(=O)c3ccc(C(=O)NCCOC)cc3C2=O)CC1`, 13.2%.
The same measure for `CN(C)S(=O)(=O)N1CCN(C(=O)c2ccc3c(c2)OCO3)CC1`: 7.09%; for `COc1ccc(NC(=O)CC2C(=O)NCCN2C(=O)c2ccc(N(C)C)cc2)cc1` (stereo not drawn): 1.73%; for `CCCS(=O)(=O)N1CCN(Cc2ccc3c(c2)c2ccccc2n3CC)CC1.O=C(O)C(=O)O`: 8.61%.
Consider `Cc1ccc(C)c(OCCC(=O)NCCc2ccc(Cl)cc2)c1`, for which the “hERG current change (%, negative = inhibition) at 1uM” value turned out to be 13.4%.
The same measure for `Cc1c(C(=O)N2CCc3ccccc32)cnn1C`: 7.87%.
Consider `O=C(COC(=O)c1ccc(OC(F)F)cc1)NCCNC(=O)COC(=O)c1ccc(OC(F)F)cc1`, for which the “hERG current change (%, negative = inhibition) at 1uM” value is -0.242%.
Take `CN(Cc1cccc([N+](=O)[O-])c1)Cc1cccc2ccccc12`: the “hERG current change (%, negative = inhibition) at 1uM” value came out at 17%.
Take `CC(C)(C)OC(=O)NCCc1nnc(SCc2cccc(Cl)c2)o1`: the “hERG current change (%, negative = inhibition) at 1uM” value is 9.96%.
To `COC(=O)[C@@H]1C[C@H]2CC[C@H](O)C[C@H]2N1Cc1ccc(C)s1` belongs 10.1%; to `COc1cccc(C(=O)N2CCN(CCCc3ccccc3)CC2)c1OC.O=C(O)C(=O)O`, -4.87%.
To `CN(Cc1nc2ccccc2c(=O)[nH]1)C(=O)COc1ccccc1Cc1ccccc1` belongs -2.86%; to `COc1ccc2nc3cccc(OC)c3nc2c1`, 4.15%; to `Cc1ccccc1C(=O)c1cccn1CC(=O)NCc1ccc2c(c1)OCO2`, 17.8%.
Turning to `COc1ccc(C2=NS(=O)(=O)N(C)C(C(=O)N3CCC(C)CC3)=C2)cc1`, the “hERG current change (%, negative = inhibition) at 1uM” value was -13.6%.
The same measure for `COC(CNC(=O)C1CCCN1C(=O)OCc1ccccc1)OC` (stereo not drawn): -8.76%.
To `O=C1C2C3C=CC(C4CC34)C2C(=O)N1/N=C/c1ccc([N+](=O)[O-])o1` (stereo not drawn) belongs 8.06%; to `O=C(NCCn1cc(SCC(=O)N2CCOCC2)c2ccccc21)c1ccccc1`, 3.53%.
